Results on 137 sequences are retold here after publication PMC5515408.

The list shows a part of the results. At the low end of the ranking, values are background and their order means little.

The target of the assay is MAX:MAX (p21) (UniProt P61244-2). Nature of the assay: protein-binding microarray (anti-MAX antibody). As to conditions: PBM: 15 mM Tris-HCl pH 7.5, 100 mM KCl, 0.075% NP40, 7.5 mM beta-mercaptoethanol, 375 ng/ul BSA, 8 ng/ul poly(dA-dT):(dA-dT), 550 ng complex, 60 min, room …; high values mean tight binding; double strand, one strand shown; sequences stand for … in CCGGC…TTAATAGCTAAGATTACTATATCGACG
TGACCATACGTA came in with a binding signal (log2 normalized fluorescence) of 0.577. Then TGATACTTTGTA, with -0.964. Then TGAAACAACGTA, with 0.158; and TGAACTCTAGTA, with -0.97; and TGACACGATGTA, with 2.21. Take TGACGCGTCGCA: the binding signal (log2 normalized fluorescence) is 0.257. TGACTAAGAGTA registered a binding signal (log2 normalized fluorescence) of -1.02. The sequence TGAGATATGGTA yielded a binding signal (log2 normalized fluorescence) of -0.828.

For the sequence GAACATGTGGTA, the binding signal (log2 normalized fluorescence) is 3.2.

As for TGATCCTGAGTA, the binding signal (log2 normalized fluorescence) is -1.02. Then TGAAAGCAGGTA, with -0.157; and TGAGAGTTTGTA, with -1.03. TGAAAGCCGGTA gave a binding signal (log2 normalized fluorescence) of -1.24. TGAGGGATGGTA gave a binding signal (log2 normalized fluorescence) of 0.0855. With TGACACGTGGAG, the binding signal (log2 normalized fluorescence) was 2.99. Then TGATATACCGTA, with -0.669. As for ATTACTAGATGA, the binding signal (log2 normalized fluorescence) is 0.503. In turn, TGAGACTCGGTA came in with a binding signal (log2 normalized fluorescence) of -0.816. TGACCCAAGGTA displayed a binding signal (log2 normalized fluorescence) of -0.0673.

As for TGACTATCAGTA, the binding signal (log2 normalized fluorescence) is -0.801. TGACACAAGGGA had a binding signal (log2 normalized fluorescence) of 1.23. TGACTTGCTGTA displayed a binding signal (log2 normalized fluorescence) of 0.424. In turn, GGCCACGTAGTA showed a binding signal (log2 normalized fluorescence) of 2.08. On to TGATTTTTGGTA, for which the binding signal (log2 normalized fluorescence) was -1.29. In turn, TGACATGTGGTT came in with a binding signal (log2 normalized fluorescence) of 2.98. TGCCAGGTGGTG gave a binding signal (log2 normalized fluorescence) of 3.19. Turning to TGATCTAAGGTA, the binding signal (log2 normalized fluorescence) was -0.764. Consider TGATTAGTGGTA, for which the binding signal (log2 normalized fluorescence) was -0.573. TGAGTTACAGTA: the binding signal (log2 normalized fluorescence) was -0.754. The sequence TGATCATTCGTA displayed a binding signal (log2 normalized fluorescence) of -0.551. TCACATGTGGTA returned a binding signal (log2 normalized fluorescence) of 3.23. TGATTAGTAGTA returned a binding signal (log2 normalized fluorescence) of -1.09. The figure for TGATACCGCGTA is -0.369; for TTTCACTTGGTA it is -0.636. TGATAGCTGGTA: the binding signal (log2 normalized fluorescence) was -1.18. The figure for TGAGATGCTGTA is -0.422. Turning to TGAGAAATTGTA, the binding signal (log2 normalized fluorescence) is -1.27. The sequence TGAGTGCGCGTA yielded a binding signal (log2 normalized fluorescence) of 0.259. Turning to TGAAGGCCAGTA, the binding signal (log2 normalized fluorescence) was -0.68. Consider TGAACTTTGGTA, for which the binding signal (log2 normalized fluorescence) was -0.987. For the sequence TGCGACGTGGTA, the binding signal (log2 normalized fluorescence) is 2.27.

As to TGATAGTGTGTA, the binding signal (log2 normalized fluorescence) stood at 0.414. TGATTCTAAGTA displayed a binding signal (log2 normalized fluorescence) of -1.27. Then TGACGCACCGTA, with 0.636.

Regarding TGATCGATAGTA, the binding signal (log2 normalized fluorescence) was -1.05. Regarding TTACAGGTGTTA, the binding signal (log2 normalized fluorescence) was 2.02. Regarding TGACTACGAGTA, the binding signal (log2 normalized fluorescence) was -0.00923. For the sequence TGAGCTAGAGTA, the binding signal (log2 normalized fluorescence) was -1.22. For TGATACTTAGTA, the binding signal (log2 normalized fluorescence) was -1.02.

TGACAGGCAGTA came in with a binding signal (log2 normalized fluorescence) of 0.262.

In turn, CTTCACGTGGTA displayed a binding signal (log2 normalized fluorescence) of 3.1. In the case of TGACATGTAGTA, the binding signal (log2 normalized fluorescence) came out at 1.02. Then TGACCTATGGTA, with -0.0465. Then TGACGTTTGGTA, with -0.649; and TGATGCGAAGTA, with -0.344. Consider TGAGTTGAGGTA, for which the binding signal (log2 normalized fluorescence) was -0.631. TGAACGAGCGTA: the binding signal (log2 normalized fluorescence) was -0.202. The figure for GTATACGTGGTA is 1.62. TGATCGTGGGTA: the binding signal (log2 normalized fluorescence) was 0.751. Turning to GGACACGTTGTT, the binding signal (log2 normalized fluorescence) came to 3.24. For TGATTGACAGTA, the binding signal (log2 normalized fluorescence) is -0.751. Regarding TGAGGCAGCGTA, the binding signal (log2 normalized fluorescence) is -0.447.

In turn, TGAACACATGTA had a binding signal (log2 normalized fluorescence) of 3.21.

TGACTTGAAGTA: the binding signal (log2 normalized fluorescence) is -0.602. Consider TGATAGGCTGTA, for which the binding signal (log2 normalized fluorescence) was -0.837. Then GAACACGTGGTA, with 3.34; and TGACACGTTTTA, with 2.98; and TGAAAGTAAGTA, with -0.774.

On to TGAAGCGCGGTA, for which the binding signal (log2 normalized fluorescence) was 0.738. Sequence TGAGAGCCAGTA yielded a binding signal (log2 normalized fluorescence) of -0.917. In turn, TGACTCTCAGTA returned a binding signal (log2 normalized fluorescence) of -0.859. Regarding TGATCCCAGGTA, the binding signal (log2 normalized fluorescence) is -0.83.

In the case of TGACGACATGTA, the binding signal (log2 normalized fluorescence) was determined as 0.964.

Sequence TGACGTGCGGTA returned a binding signal (log2 normalized fluorescence) of 1.29. TGACCGTCAGTA yielded a binding signal (log2 normalized fluorescence) of -0.303.

As for TGACCGTCTGTA, the binding signal (log2 normalized fluorescence) is -0.178. The sequence TGAAGTAAAGTA came in with a binding signal (log2 normalized fluorescence) of -0.746. As to TGAATCATAGTA, the binding signal (log2 normalized fluorescence) is -0.822. The figure for TGATTCGGAGTA is -0.92; for TGAGCGGTTGTA it is -0.742; for TGAGGGCGTGTA it is 1.37. For the sequence TGATCAACCGTA, the binding signal (log2 normalized fluorescence) was -0.486. On to TGAACTAGCGTA, for which the binding signal (log2 normalized fluorescence) was -0.848. Take TTAAACGTGTTA: the binding signal (log2 normalized fluorescence) worked out at 2.7. Regarding TGATGGGTCGTA, the binding signal (log2 normalized fluorescence) was -0.154. As to TGACCATCGGTA, the binding signal (log2 normalized fluorescence) is -0.214. As for TGAAGAATAGTA, the binding signal (log2 normalized fluorescence) is -1.12. In the case of TGAATCGTGGTA, the binding signal (log2 normalized fluorescence) was 1.18.

As to TGATATACAGTA, the binding signal (log2 normalized fluorescence) is -0.979. The figure for TGAGGGATCGTA is -0.869; for TGATGGAGCGTA it is -0.127. Then TGAGACAACGTA, with -0.46; and TGAGCATAAGTA, with -0.0306. Sequence TGAAATATGGTA showed a binding signal (log2 normalized fluorescence) of 0.0492. Take ACTTAGGGGGGT: the binding signal (log2 normalized fluorescence) was 2.23. Sequence TGACACGTGGGA came in with a binding signal (log2 normalized fluorescence) of 3.16. The sequence TGATAATACGTA gave a binding signal (log2 normalized fluorescence) of -0.575. For the sequence TGAATCACTGTA, the binding signal (log2 normalized fluorescence) is -0.285. Turning to TGACACGGGCTA, the binding signal (log2 normalized fluorescence) is 1.61. The sequence TGAAATGCAGTA registered a binding signal (log2 normalized fluorescence) of 0.012. In the case of TGATCCCGTGTA, the binding signal (log2 normalized fluorescence) was 1.51.

Take TGACACGTCGAA: the binding signal (log2 normalized fluorescence) was 1.45. As to TGAGCTCGTGTA, the binding signal (log2 normalized fluorescence) stood at 2.17. The figure for TGATCCTGTGTA is -0.17. The figure for TGACACGTGGTA is 3.19. The figure for TGAACAACTGTA is -0.387. As for TGAAGCATAGTA, the binding signal (log2 normalized fluorescence) was -0.349. Consider TGATCCCGAGTA, for which the binding signal (log2 normalized fluorescence) is -0.715.

TGAGGTGTGGTA showed a binding signal (log2 normalized fluorescence) of 0.791. As for TGGTGCGTGGTA, the binding signal (log2 normalized fluorescence) is 2.26. As to TGAGGTCGTGTA, the binding signal (log2 normalized fluorescence) was -0.099.

For the sequence TGAAATCTTGTA, the binding signal (log2 normalized fluorescence) was -0.976. As to TGAGCCTCTGTA, the binding signal (log2 normalized fluorescence) was -1.13. As to TGAGGAAGAGTA, the binding signal (log2 normalized fluorescence) was -0.942. Sequence TGAGGAGCTGTA showed a binding signal (log2 normalized fluorescence) of -0.888. In turn, TGACGCCGGGTA yielded a binding signal (log2 normalized fluorescence) of -0.341. Then TGACCCGTGGCT, with 2.46; and TGAAATCGGGTA, with -0.814; and TGAGCGGCTGTA, with -0.467. Consider TGATTGGGAGTA, for which the binding signal (log2 normalized fluorescence) was -0.719. Then TGAAGGTGAGTA, with -0.37. For TGAAGCTCTGTA, the binding signal (log2 normalized fluorescence) is -0.942. Then TGAACAGTAGTA, with -0.749; and TGAGGTGGGGTA, with 1.14; and TGAACAATTGTA, with -0.588.

TGAGTCGGTGTA registered a binding signal (log2 normalized fluorescence) of -1.17. Turning to TGAGGGTCAGTA, the binding signal (log2 normalized fluorescence) was -0.48.

With TGAGCTCGGGTA, the binding signal (log2 normalized fluorescence) was -1.11. In turn, TGAACCATTGTA came in with a binding signal (log2 normalized fluorescence) of -0.372.

Consider TGACATATTGTA, for which the binding signal (log2 normalized fluorescence) worked out at 0.881. Regarding TGACAACATGTA, the binding signal (log2 normalized fluorescence) was 1.84. In turn, TGAAAGTTAGTA yielded a binding signal (log2 normalized fluorescence) of -1.01. The sequence TGAAGACCGGTA showed a binding signal (log2 normalized fluorescence) of -0.351. Then TGGCACGCGGTC, with 3.28; and TGAACCCACGTA, with 0.752. The sequence CGTCACGTGGTA returned a binding signal (log2 normalized fluorescence) of 3.18. On to TCAGACGTGGTA, for which the binding signal (log2 normalized fluorescence) is 1.39.
